Drawing on patent publication US6800434B2, “Peptides as NS3-serine protease inhibitors of hepatitis C virus” (priority 2000, dated 2004), this text covers Ki for 15 compounds.

Molecules are shown by their SMILES. Starred links: 1 amine or outer side, 2 acyl side, 3 side chain; linkers in the order of their positions; H or OH if unused. Non-standard residues stand in square brackets, D forms with d. Residues, ends and D or L forms follow the SMILES beside them. *: point of attachment. X9 = O=C(N[C@@H]1C[C@@H](C(=O)[*:2])N([*:1])C1)c1ccc2c(c1)OCO2; X27 = CC(C)(C)[Si](C)(C)O[C@@H]1C[C@@H](C(=O)[*:2])N([*:1])C1; X33 = O=C(N[C@@H]1C[C@@H](C(=O)[*:2])N([*:1])C1)c1ccccc1; X1 = CCC[C@H](N[*:1])C(=O)C(=O)[*:2]; X13 = O=C(C(=O)[*:2])C1(N[*:1])CCCC1; X3 = CCCC(N[*:1])C(=O)C(=O)[*:2]; Chg = N[C@H](C(=O)O)C1CCCCC1; Phg = N[C@H](C(=O)O)c1ccccc1; Tle = CC(C)(C)[C@H](N)C(=O)O; Pip = O=C(O)[C@@H]1CCCCN1; hSer = N[C@@H](CCO)C(=O)O; NH(propargyl) = C#CCN*; Bn = c1ccc(C*)cc1; OtBu = CC(C)(C)O*; tBu = CC(C)(C)*; OAll = C=CCO*; OPr = CCCO*

The target of the first assay is Recombinant heterodimeric HCV NS3/NS4A protease (strain 1a) (Hepatitis C virus genotype 1a, UniProt P27958). As to the kind of experiment: biochemical. The settings on record: Ki* Range.
Broadly, the Ki is the dissociation constant of the complex between target and ligand, obtained from inhibition or displacement. For the compound `CCC[C@H](NC(=O)[C@@H]1CCCN1C(=O)[C@@H](NC(=O)[C@@H](NC(=O)[C@H](CCC(=O)O)NC(=O)[C@H](CCC(=O)O)NC(C)=O)C(C)C)c1ccccc1)C(=O)C(=O)NCC(=O)O` [Ac-EEV-G(Ph)-P-nV-(CO)-G-OH] (Ac-EEV[Phg]P[X1]G-OH), the Ki was in the range of 101 to 999 nM. Same read-out and setting: in the case of `CCC[C@H](NC(=O)[C@@H]1CCCN1C(=O)[C@@H](NC(=O)[C@@H](NC(=O)[C@H](CCC(=O)O)NC(=O)[C@H](CCC(=O)O)NC(C)=O)C(C)C)C(C)C)C(=O)C(=O)NCC(=O)OC(C)(C)C` [Ac-EEVVP-nV-(CO)-G-OtBu] (Ac-EEVVP[X1]G-OtBu) it was 101 to 999 nM; in that of `CCC[C@H](NC(=O)[C@@H]1C[C@@H](NC(=O)c2ccc3c(c2)OCO3)CN1C(=O)[C@@H](NC(=O)[C@@H](NC(=O)[C@H](CCC(=O)O)NC(=O)[C@H](CCC(=O)O)NC(C)=O)C(C)C)C(C)C)C(=O)C(=O)NCC(=O)O` [Ac-EEVV-P(4t-NHBzl)3,4-OMeO))-nV-(CO)-G-OH] (Ac-EEVV[X9][X1]G-OH), 1 to 100 nM. The same measure, in the same setting: in the case of `CCC[C@H](NC(=O)[C@@H]1CCCN1C(=O)[C@@H](NC(=O)[C@@H](NC(=O)[C@H](CCC(=O)OC(C)(C)C)NC(=O)[C@H](CCC(=O)OC(C)(C)C)NC(C)=O)C(C)C)C(C)C)C(=O)C(=O)N[C@@H](COCc1ccccc1)C(=O)NC` [Compound 24] (Ac-E(OtBu)E(OtBu)VVP[X1]S(Bn)-NHMe) it was 1000 to 10000 nM. For `C#CCNC(=O)CNC(=O)C(=O)[C@H](CCC)NC(=O)[C@@H]1CCCN1C(=O)[C@@H](NC(=O)[C@@H](NC(=O)[C@H](CCC(=O)O)NC(=O)[C@H](CCC(=O)O)NC(C)=O)C(C)C)C(C)C` [Ac-EEVVP-nV-(CO)-G-propynylamide] (Ac-EEVVP[X1]G-{NH(propargyl)}), the Ki lay within 1000 to 10000 nM.

As for `C=CCOC(=O)CNC(=O)C(=O)[C@H](CCC)NC(=O)[C@@H]1CCCN1C(=O)[C@@H](NC(=O)[C@@H](NC(=O)[C@H](CCC(=O)O)NC(=O)[C@H](CCC(=O)O)NC(C)=O)C(C)C)C(C)C` [Compound 2] (Ac-EEVVP[X1]G-OAll), the Ki fell in the range of 101 to 999 nM. Still for that read-out and setting: for `CCCC(NC(=O)[C@@H]1CCCN1C(=O)[C@@H](NC(=O)[C@H](CCO)NC(=O)[C@H](CCC(=O)O)NC(=O)[C@H](CCC(=O)O)NC(C)=O)C(C)C)C(=O)C(=O)NCC(=O)O` (stereo partly drawn) [Ac-EEhSVP-nV-(CO)-G-OH] (Ac-EE[hSer]VP[X3]G-OH) the value was 1000 to 10000 nM; for `C=CCOC(=O)CNC(=O)C(=O)C(CCC)NC(=O)[C@@H]1CCCN1C(=O)[C@@H](NC(=O)[C@@H](NC(=O)[C@H](CCC(=O)OC(C)(C)C)NC(=O)[C@H](CCC(=O)OC(C)(C)C)NC(C)=O)C(C)C)C1CCCCC1` (stereo partly drawn) [Compound 54] (Ac-E(OtBu)E(OtBu)V[Chg]P[X3]G-OAll), 101 to 999 nM; for `CCCOC(=O)CNC(=O)C(=O)C(CCC)NC(=O)[C@@H]1CCCCN1C(=O)[C@@H](NC(=O)[C@@H](NC(=O)[C@H](CCC(=O)OC(C)(C)C)NC(=O)[C@H](CCC(=O)OC(C)(C)C)NC(C)=O)C(C)C)C(C)C` (stereo partly drawn) [Compound 76] (Ac-E(OtBu)E(OtBu)VV[Pip][X3]G-OPr), 1000 to 10000 nM. In the case of `C=CCOC(=O)CNC(=O)C(=O)C1(NC(=O)[C@@H]2CCCN2C(=O)[C@@H](NC(=O)[C@@H](NC(=O)[C@H](CCC(=O)O)NC(=O)[C@H](CCC(=O)O)NC(C)=O)C(C)C)C(C)C)CCCC1` [Compound 3] (Ac-EEVVP[X13]G-OAll), the Ki fell in the range of 1000 to 10000 nM. Consider `CCC[C@H](NC(=O)[C@@H]1CCCN1C(=O)[C@@H](NC(=O)[C@@H](NC(=O)[C@H](CCC(=O)OC(C)(C)C)NC(=O)[C@H](CCC(=O)OC(C)(C)C)NC(C)=O)C(C)C)C(C)C)C(=O)C(=O)N[C@@H](COC(C)(C)C)C(=O)OC` [Compound 30] (Ac-E(OtBu)E(OtBu)VVP[X1]S(tBu)-OMe), for which the Ki was in the range of 1000 to 10000 nM. Same read-out and setting: in the case of `CCC[C@H](NC(=O)CN(CCCC(N)C(=O)O)C(=O)[C@@H](NC(=O)[C@@H](NC(=O)[C@H](CCC(=O)O)NC(=O)[C@H](CCC(=O)O)NC(C)=O)C(C)C)C(C)C)C(=O)C(=O)NCC(=O)O` (stereo partly drawn) [Ac-Glu-Glu-Val-Val-Gly(N-Bu(4NH2,4-COOH)-nVal(CO)-Gly-OH] it was 1 to 100 nM; in that of `CCC[C@H](NC(=O)[C@@H]1CCCN1C(=O)[C@@H](NC(=O)[C@@H](NC(=O)[C@H](CCC(=O)O)NC(=O)[C@H](CCC(=O)O)NC(C)=O)C(C)C)C(C)(C)C)C(=O)C(=O)NCC(=O)O` [Ac-EEVG(t-Bu)P-nV-(CO)-G-OH] (Ac-EEV[Tle]P[X1]G-OH), 1 to 100 nM; in that of `CCC[C@H](NC(=O)[C@@H]1C[C@@H](NC(=O)c2ccccc2)CN1C(=O)[C@@H](NC(=O)[C@@H](NC(=O)[C@H](CCC(=O)O)NC(=O)[C@H](CCC(=O)O)NC(C)=O)C(C)C)C(C)C)C(=O)C(=O)NCC(=O)O` [Ac-EEVV-P(4t-NHBzl)-nV-(CO)-G-OH, Ac-Glu-Glu-Val-Val-Pro(4t-NHBzl)-nVal-(CO)-Gly-OH] (Ac-EEVV[X33][X1]G-OH), 1 to 100 nM.

Staying with this assay, now noted: Table 1, HCV protease continuous assay; read-out: Ki* Range.
In the case of `C=CCOC(=O)CNC(=O)C(=O)C(CCC)NC(=O)[C@@H]1C[C@@H](O[Si](C)(C)C(C)(C)C)CN1C(=O)[C@@H](NC(=O)[C@@H](NC(=O)[C@H](CCC(=O)OC(C)(C)C)NC(=O)[C@H](CCC(=O)OC(C)(C)C)NC(C)=O)C(C)C)C(C)C` (stereo partly drawn) [Compound 41] (Ac-E(OtBu)E(OtBu)VV[X27][X3]G-OAll), the Ki was 1000 to 10000 nM.
